# According to the supplement of paper PMC12067093, “Discovery and optimisation of a covalent ligand for TRIM25 and its application to targeted protein ubiquitination” (Chemical Science, 2025):
# Of roughly 21,000 targets only a part is listed; those with the largest changes were picked by preference.
# Compound: Cc1cc(ccc1-c1ccccc1)C(=O)N1CCCN(CC1)C(=O)CCl [compound 10]
# Experiment: probe-labelled cysteine peptide fold change vs DMSO (competition) (log2 fold change); higher = less target engagement (more negative = stronger competition)
# Settings: THP-1, incubation time: 4 h
# 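Also: competitive profiling in live THP-1 cells: cysteine peptides tagged with an iodoacetamide desthiobiotin (IA-DTB) probe, intensity after compound treatment relative to DMSO-treated cells.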
# Chain of UniProt O14972 (O14972 whole entry, looked up): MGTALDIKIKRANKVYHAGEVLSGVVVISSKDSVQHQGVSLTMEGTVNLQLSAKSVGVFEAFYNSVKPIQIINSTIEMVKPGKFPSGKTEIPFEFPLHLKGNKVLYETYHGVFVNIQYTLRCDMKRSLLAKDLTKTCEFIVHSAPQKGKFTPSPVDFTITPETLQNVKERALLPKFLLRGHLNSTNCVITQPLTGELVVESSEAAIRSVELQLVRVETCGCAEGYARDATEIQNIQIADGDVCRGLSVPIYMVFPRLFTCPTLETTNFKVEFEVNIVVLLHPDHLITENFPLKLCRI
# Chain of UniProt Q5JSL3 (Q5JSL3 whole entry, looked up): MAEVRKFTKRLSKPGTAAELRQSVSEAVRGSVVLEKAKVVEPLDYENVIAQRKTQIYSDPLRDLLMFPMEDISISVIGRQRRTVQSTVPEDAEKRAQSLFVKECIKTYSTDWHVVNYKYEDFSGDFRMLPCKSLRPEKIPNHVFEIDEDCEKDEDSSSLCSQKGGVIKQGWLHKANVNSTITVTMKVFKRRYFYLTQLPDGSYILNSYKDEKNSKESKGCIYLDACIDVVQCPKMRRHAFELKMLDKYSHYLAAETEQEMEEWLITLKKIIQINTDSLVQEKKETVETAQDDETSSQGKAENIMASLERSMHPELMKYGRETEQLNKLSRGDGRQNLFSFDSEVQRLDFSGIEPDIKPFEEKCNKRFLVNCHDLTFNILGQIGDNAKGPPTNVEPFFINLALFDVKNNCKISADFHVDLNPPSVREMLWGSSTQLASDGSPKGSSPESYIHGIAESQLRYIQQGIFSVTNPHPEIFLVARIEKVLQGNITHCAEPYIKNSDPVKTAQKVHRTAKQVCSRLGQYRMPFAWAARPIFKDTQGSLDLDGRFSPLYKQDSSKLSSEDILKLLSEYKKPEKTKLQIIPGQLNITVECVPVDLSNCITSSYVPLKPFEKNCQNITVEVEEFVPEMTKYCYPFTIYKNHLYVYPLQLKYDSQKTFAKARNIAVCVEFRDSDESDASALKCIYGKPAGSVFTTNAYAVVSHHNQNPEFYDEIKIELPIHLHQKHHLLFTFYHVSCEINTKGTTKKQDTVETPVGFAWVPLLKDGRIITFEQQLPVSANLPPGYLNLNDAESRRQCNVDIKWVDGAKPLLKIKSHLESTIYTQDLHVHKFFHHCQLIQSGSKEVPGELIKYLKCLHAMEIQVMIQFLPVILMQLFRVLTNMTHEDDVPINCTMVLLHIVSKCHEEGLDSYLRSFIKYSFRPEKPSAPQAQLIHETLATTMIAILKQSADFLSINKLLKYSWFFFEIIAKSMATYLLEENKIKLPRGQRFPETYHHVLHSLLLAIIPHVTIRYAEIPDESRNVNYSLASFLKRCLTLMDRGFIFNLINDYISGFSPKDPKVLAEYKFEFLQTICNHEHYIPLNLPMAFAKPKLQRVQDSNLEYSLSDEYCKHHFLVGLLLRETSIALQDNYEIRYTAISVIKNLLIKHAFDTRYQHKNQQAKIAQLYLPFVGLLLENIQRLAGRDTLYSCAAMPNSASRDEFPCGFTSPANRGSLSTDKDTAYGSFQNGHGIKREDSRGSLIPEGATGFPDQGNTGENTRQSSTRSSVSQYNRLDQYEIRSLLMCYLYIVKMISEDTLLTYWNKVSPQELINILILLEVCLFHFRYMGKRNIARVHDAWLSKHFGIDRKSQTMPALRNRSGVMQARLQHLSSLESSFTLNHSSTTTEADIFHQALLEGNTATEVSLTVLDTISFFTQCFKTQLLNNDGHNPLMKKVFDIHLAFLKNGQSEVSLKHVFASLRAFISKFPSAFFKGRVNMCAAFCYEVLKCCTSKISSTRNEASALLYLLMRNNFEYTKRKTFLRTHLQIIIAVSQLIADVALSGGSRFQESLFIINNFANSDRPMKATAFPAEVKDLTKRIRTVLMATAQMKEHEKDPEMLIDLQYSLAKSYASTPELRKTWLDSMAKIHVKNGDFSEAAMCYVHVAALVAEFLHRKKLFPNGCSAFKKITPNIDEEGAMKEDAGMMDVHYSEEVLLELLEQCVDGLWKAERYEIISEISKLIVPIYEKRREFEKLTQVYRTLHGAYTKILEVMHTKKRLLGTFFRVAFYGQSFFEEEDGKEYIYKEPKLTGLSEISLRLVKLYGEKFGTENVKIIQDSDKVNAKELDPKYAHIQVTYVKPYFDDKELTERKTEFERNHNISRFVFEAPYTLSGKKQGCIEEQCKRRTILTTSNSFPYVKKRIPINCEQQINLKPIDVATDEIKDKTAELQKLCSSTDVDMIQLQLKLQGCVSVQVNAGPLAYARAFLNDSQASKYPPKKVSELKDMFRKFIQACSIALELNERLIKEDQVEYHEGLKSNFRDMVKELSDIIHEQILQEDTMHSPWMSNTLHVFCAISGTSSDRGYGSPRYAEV
# Chain of UniProt P16591 (P16591 whole entry, looked up): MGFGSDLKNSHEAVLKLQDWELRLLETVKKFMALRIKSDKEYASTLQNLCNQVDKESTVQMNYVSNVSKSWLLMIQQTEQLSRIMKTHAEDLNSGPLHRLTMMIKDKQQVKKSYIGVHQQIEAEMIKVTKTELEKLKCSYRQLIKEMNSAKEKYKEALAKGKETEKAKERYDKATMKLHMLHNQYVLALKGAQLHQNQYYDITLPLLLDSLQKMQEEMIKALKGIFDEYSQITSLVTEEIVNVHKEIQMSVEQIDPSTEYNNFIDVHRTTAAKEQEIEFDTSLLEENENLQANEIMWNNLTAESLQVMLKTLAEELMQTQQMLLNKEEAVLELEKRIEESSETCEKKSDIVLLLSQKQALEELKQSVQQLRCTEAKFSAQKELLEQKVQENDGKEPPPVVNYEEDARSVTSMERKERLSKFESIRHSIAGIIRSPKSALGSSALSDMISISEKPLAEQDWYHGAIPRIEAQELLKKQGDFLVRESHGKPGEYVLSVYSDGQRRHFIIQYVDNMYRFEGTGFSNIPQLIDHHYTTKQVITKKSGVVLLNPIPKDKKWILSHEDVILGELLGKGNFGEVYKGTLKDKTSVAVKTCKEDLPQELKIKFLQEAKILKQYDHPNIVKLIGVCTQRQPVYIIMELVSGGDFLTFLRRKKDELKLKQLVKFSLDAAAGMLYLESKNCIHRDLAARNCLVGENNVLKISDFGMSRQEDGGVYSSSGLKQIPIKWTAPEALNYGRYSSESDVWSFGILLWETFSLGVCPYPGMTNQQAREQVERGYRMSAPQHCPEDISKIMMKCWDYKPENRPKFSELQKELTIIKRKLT
# Chain of UniProt Q56NI9 (Q56NI9 whole entry, looked up): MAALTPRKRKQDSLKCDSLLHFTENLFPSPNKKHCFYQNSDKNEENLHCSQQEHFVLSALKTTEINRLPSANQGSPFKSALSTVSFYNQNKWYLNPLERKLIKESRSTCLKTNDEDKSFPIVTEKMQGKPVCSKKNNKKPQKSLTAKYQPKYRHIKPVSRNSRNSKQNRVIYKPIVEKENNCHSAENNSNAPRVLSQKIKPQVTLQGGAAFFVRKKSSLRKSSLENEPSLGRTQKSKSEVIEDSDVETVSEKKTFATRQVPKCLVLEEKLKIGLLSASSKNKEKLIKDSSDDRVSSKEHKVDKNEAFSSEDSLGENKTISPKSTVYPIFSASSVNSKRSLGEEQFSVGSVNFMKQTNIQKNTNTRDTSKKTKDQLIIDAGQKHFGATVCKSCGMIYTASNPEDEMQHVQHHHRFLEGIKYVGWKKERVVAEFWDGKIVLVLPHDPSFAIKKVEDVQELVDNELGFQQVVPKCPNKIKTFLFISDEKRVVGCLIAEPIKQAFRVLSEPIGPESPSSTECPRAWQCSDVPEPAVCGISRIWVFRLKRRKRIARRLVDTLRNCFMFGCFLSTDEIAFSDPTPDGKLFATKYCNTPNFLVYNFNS
# Chain of UniProt Q9NSD9 (Q9NSD9 whole entry, looked up): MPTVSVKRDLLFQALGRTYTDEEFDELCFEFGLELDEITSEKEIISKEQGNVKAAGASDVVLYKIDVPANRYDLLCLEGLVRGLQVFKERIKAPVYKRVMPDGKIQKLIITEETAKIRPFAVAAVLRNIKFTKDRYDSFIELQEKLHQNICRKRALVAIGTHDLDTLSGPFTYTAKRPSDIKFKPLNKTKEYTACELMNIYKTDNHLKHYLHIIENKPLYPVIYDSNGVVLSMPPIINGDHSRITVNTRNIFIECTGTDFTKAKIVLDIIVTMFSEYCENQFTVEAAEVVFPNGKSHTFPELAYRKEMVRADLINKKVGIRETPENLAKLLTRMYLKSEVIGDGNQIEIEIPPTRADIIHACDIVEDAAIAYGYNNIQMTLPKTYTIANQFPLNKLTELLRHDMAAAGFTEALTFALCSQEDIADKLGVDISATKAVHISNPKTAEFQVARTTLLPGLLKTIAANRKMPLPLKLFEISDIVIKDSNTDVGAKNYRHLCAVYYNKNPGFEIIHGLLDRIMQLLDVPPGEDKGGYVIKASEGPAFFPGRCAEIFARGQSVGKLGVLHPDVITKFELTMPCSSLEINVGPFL
# Chain of UniProt Q5RKV6 (Q5RKV6 whole entry, looked up): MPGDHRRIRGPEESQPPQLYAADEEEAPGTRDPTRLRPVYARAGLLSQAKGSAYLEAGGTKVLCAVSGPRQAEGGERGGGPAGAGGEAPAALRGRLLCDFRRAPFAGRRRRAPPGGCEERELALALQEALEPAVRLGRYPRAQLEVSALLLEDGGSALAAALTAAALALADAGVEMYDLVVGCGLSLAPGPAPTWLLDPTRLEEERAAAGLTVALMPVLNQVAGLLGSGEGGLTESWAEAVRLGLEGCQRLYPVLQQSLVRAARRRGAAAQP
# Chain of UniProt Q92785 (Q92785 whole entry, looked up): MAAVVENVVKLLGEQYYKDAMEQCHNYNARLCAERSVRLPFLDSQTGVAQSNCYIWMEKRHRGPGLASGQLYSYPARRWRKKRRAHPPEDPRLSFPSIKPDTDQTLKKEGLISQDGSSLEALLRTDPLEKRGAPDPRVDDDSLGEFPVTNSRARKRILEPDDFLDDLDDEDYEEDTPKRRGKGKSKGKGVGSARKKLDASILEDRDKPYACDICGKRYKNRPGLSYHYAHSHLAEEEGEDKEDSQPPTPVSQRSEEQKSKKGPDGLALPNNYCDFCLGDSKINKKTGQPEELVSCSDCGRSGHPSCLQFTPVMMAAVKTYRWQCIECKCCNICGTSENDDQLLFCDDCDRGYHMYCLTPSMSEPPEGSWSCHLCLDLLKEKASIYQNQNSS
Target,probe-labelled cysteine peptide fold change (10 µM),probe-labelled cysteine peptide fold change (50 µM)
DOCK11_Q5JSL3_1641_NGDFSEAAMCYVHVAALVAEFLHR (UniProt Q5JSL3),-0.0337,-0.0391
ECM1_Q16610_269_FSCFQEEAPQPHYQLR (UniProt Q16610),0.753,1.07
EGLN1_Q9GZT9_266_EPGCETIGLLMSSMDDLIR (UniProt Q9GZT9),0.298,0.274
FARSB_Q9NSD9_418_HDMAAAGFTEALTFALCSQEDIADK (UniProt Q9NSD9),0.0214,0.0396
EHMT2_Q96KQ7_126_GGSCPSR (UniProt Q96KQ7),0.842,1.11
DOP1A_Q5JWR5_2127_EAFDLFMDPSFFQMDASCVNHWR (UniProt Q5JWR5),-0.115,-0.0466
FER_P16591-3_26_TCALMFSSEPSTSEVHRDQER (UniProt P16591),0.177,-0.0627
EIF2B3_Q9NR50_424_DCLIGSGQR (UniProt Q9NR50),-0.0396,-0.0614
EXOSC6_Q5RKV6_117_RAPPGGCEER (UniProt Q5RKV6),-0.293,-1.51
EPHX2_P34913_314_GYGESSAPPEIEEYCMEVLCK (UniProt P34913),0.317,0.146
ESCO2_Q56NI9_389_HFGATVCK (UniProt Q56NI9),0.0621,0.116
EXOC5_O00471_675_QVCSGEQLANLDK (UniProt O00471),0.191,0.123
DPF2_Q92785_306_SGHPSCLQFTPVMMAAVK (UniProt Q92785),0.169,-0.346
DSCR3_O14972_221_VETCGCAEGYAR (UniProt O14972),-0.123,-1.72
